This is an account of results in the antibiotic and cytotoxicity screens of Wong et al. (2023).

The list shows a part of the results.

In this experiment the test system is HSkMC (human skeletal muscle cells). Kind of experiment: cytotoxicity call (relative viability < 0.9). The note with it: 10 µM.
Take `Cc1ccc(S(=O)(=O)N(C)C[C@@H]2Oc3ccc(NS(C)(=O)=O)cc3CC(=O)N([C@H](C)CO)C[C@H]2C)cc1`: the cytotoxicity call was “inactive”. With `C[C@H]1CC=CC[C@H](c2cccc(Cl)c2)NC(=O)[C@@H](Cc2ccccc2)N(C)C(=O)c2ccccc2O1` the entry was “inactive”; with `O=C(C[C@@H]1CC[C@@H]2[C@H](COC[C@H](O)CN2C(=O)Nc2ccc(F)cc2)O1)NCCCN1CCOCC1`, “inactive”. The entry for `COc1ccc(NC(=O)N(C)C[C@@H]2Oc3ncc(C#CC(C)C)cc3C(=O)N([C@H](C)CO)C[C@H]2C)cc1` is “inactive”; for `C[C@H]1CN([C@@H](C)CO)C(=O)CCCn2cc(nn2)CO[C@H]1CN(C)S(=O)(=O)c1ccc(Oc2ccccc2)nc1` it is “inactive”; for `C[C@@H]1CN([C@H](C)CO)C(=O)c2cc(C#CC3CCCC3)cnc2O[C@@H]1CN(C)S(=O)(=O)c1cccc(F)c1` it is “inactive”. With `C[C@H](CO)N1C[C@H](C)[C@@H](CN(C)C(=O)Nc2ccccc2)Oc2cc(Br)ccc2S1(=O)=O` the entry was “inactive”; with `O=C(NCc1ccccc1)[C@@]1(CCS(=O)(=O)c2ccccc2)COC(c2ccc(OCCCO)cc2)=N1`, “inactive”; with `COc1cc(/C=C/C(=O)c2c(NCCc3ccccc3)sc(-c3ccc(O)c(OC)c3)cc2=O)ccc1O`, “inactive”. Consider `C=CC(=O)N1C[C@@H]2CC[C@H](O)[C@@H]2C1`, for which the cytotoxicity call is “inactive”.

On to `COc1ccc2c3c([nH]c2c1)[C@@H](CO)N(C[C@]13CCN(CCc2ccccc2)CC1)C(=O)CN1CCOCC1`, for which the cytotoxicity call was “inactive”. With `C[C@H]1[C@H]([Si](C)(C)F)[C@@H](CC(=O)N(CCO)Cc2ccccc2)O[C@]12C(=O)N(c1ccccc1)c1ccccc12` the entry was “inactive”. As for `COc1ccc2c3c([nH]c2c1)[C@H](CO)N(C[C@]13CCN(CC1)Cc1ccccc1OC)C(=O)Nc1ccc(cc1)F`, the cytotoxicity call is “inactive”. The entry for `C[C@H](CO)N1C[C@H](C)[C@H](CN(C)C(=O)C2CCCCC2)OCCCC[C@H](C)Oc2ccc(NC(=O)Nc3ccccc3)cc2C1=O` is “inactive”; for `C[C@@H]1CCCCO[C@H](CN(C)Cc2ccccc2)[C@@H](C)CN([C@@H](C)CO)C(=O)c2cc(NC(=O)C3CCCCC3)ccc2O1` it is “inactive”. With `C[C@@H]1CN([C@@H](C)CO)S(=O)(=O)c2ccc(/C=C/c3ccccc3)cc2O[C@@H]1CN(C)C(=O)CN1CCOCC1` the entry was “inactive”. The entry for `COc1cc(C2c3cc4c(cc3C(OC3OC5COC(C)OC5C(O)C3O)C3COC(=O)C23)OCO4)cc(OC)c1O` (stereo not given) is “inactive”; for `Cc1ccc(S(=O)(=O)N(C)C[C@@H]2OCCCC[C@@H](C)Oc3ccc(NS(C)(=O)=O)cc3C(=O)N([C@H](C)CO)C[C@@H]2C)cc1` it is “inactive”; for `C[C@H]1CCCCO[C@@H](CN(C)Cc2ccccc2)[C@@H](C)CN([C@@H](C)CO)C(=O)c2cc(NC(=O)NC3CCCCC3)ccc2O1` it is “inactive”. `COc1ccc(NC(=O)N(C)C[C@H]2OCCCC[C@H](C)Oc3ccc(NS(=O)(=O)c4ccc(F)cc4)cc3C(=O)N([C@@H](C)CO)C[C@H]2C)cc1`: the cytotoxicity call was “inactive”. For the compound `C[C@H]1CN([C@@H](C)CO)C(=O)c2cc(NC(=O)Nc3cccc4ccccc34)ccc2O[C@H]1CN(C)Cc1ccc(C(=O)O)cc1`, the cytotoxicity call is “inactive”.

With `Cc1cc(C(=O)Nc2cccc3c2O[C@H](CN(C)Cc2ccccc2)[C@H](C)CN([C@H](C)CO)C3=O)n(C)n1`, the cytotoxicity call is “inactive”. With `COc1ccc(NC(=O)N(C)C[C@H]2Oc3ccc(NC(=O)CCCCCC(=O)Nc4ccccc4N)cc3CC(=O)N([C@H](C)CO)C[C@@H]2C)cc1` the entry was “inactive”; with `COc1ccc(CCNC(=O)[C@@]2(Cc3ccccc3I)c3ccccc3C(=O)N(Cc3ccccc3)[C@H]2c2ccc(COC(=O)NCCCCCC(=O)NO)cc2)cc1`, “inactive”; with `C[C@@H]1CCCCO[C@@H](CN(C)Cc2ccc(C(F)(F)F)cc2)[C@@H](C)CN([C@@H](C)CO)C(=O)c2cc(NS(=O)(=O)c3cccs3)ccc2O1`, “inactive”. With `C=CCNC(=O)[C@H]1[C@@H]2C(=O)O[C@@H](c3ccccc3)[C@@H](c3ccccc3)N2[C@@H](c2ccccc2OCCO)[C@]12C(=O)Nc1ccc(C#CC3=CCCCC3)cc12` the entry was “active”; with `COc1ccc(NC(=O)Nc2ccc3c(c2)C(=O)N([C@@H](C)CO)C[C@H](C)[C@@H](CN(C)S(=O)(=O)c2ccc(Cl)cc2)OCCCC[C@@H](C)O3)cc1`, “inactive”; with `CO[C@@H]1CN(C)C(=O)c2cc(NC(=O)C3CCOCC3)ccc2OC[C@@H](C)N(C(=O)C2CCOCC2)C[C@H]1C`, “inactive”. With `CC(=O)OCC(=O)C1(O)CCC2C3CCC4=CC(=O)CCC4(C)C3(F)C(O)CC21C` (stereo not given) the entry was “inactive”; with `CCOC(=O)c1cc2c(c(-c3cccc(Br)c3)n1)[C@@H](CCOC)N([S@](=O)C(C)(C)C)C2`, “inactive”; with `COc1ccc(NC(=O)Nc2ccc3c(c2)C(=O)N([C@@H](C)CO)C[C@@H](C)[C@H](CN(C)Cc2ccc(C(F)(F)F)cc2)O3)cc1`, “inactive”. On to `Cc1noc(C)c1S(=O)(=O)Nc1ccc2c(c1)C(=O)N([C@@H](C)CO)C[C@H](C)[C@H](CN(C)S(C)(=O)=O)OCCCC[C@@H](C)O2`, for which the cytotoxicity call was “inactive”. With `CC(C)NC(=O)N[C@@H]1C=C[C@@H](CC(=O)NCCN2CCCC2)O[C@@H]1CO` the entry was “inactive”; with `O=C(N[C@H]1CC[C@@H](CCn2cc(C3(O)CCCC3)nn2)O[C@H]1CO)C1CCOCC1`, “inactive”. For `CO[C@H]1CN(C)C(=O)c2ccc(NS(=O)(=O)CC(F)(F)F)cc2OC[C@@H](C)N(Cc2nccs2)C[C@@H]1C`, the cytotoxicity call is “inactive”. Consider `C[C@@H]1CN([C@H](C)CO)C(=O)c2cc(NC(=O)Nc3cccc4ccccc34)ccc2O[C@@H](C)CCCCO[C@H]1CN(C)Cc1ccncc1`, for which the cytotoxicity call is “inactive”.

As to `C[C@@H]1CCCCO[C@@H](CN(C)CC2CC2)[C@@H](C)CN([C@H](C)CO)C(=O)c2cc(NC(=O)Cc3ccccc3)ccc2O1`, the cytotoxicity call is “inactive”. Consider `C[C@@H]1CN([C@@H](C)CO)S(=O)(=O)c2ccc(C#CC(C)(C)O)cc2O[C@@H]1CN(C)C(=O)C1CCCCC1`, for which the cytotoxicity call is “inactive”.

In the case of `Cc1noc(C)c1S(=O)(=O)Nc1ccc2c(c1)CC(=O)N([C@H](C)CO)C[C@H](C)[C@@H](CN(C)C(=O)NC(C)C)O2`, the cytotoxicity call is “inactive”. The entry for `C[C@@H]1CN([C@H](C)CO)C(=O)c2cc(NC(=O)Nc3ccc4c(c3)OCO4)ccc2O[C@H]1CN(C)Cc1ccc(Cl)c(Cl)c1` is “inactive”.
